Laboratory results as given in PubChem BioAssay AID1347417 (National Center for Advancing Translational Sciences (NCATS), 2020).
In all, about 120,000 compounds went through this assay and about 5,300 (4.4%) were called active. This list was built around the results that the source calls inconclusive (neither active nor inactive); the mix of calls is not that of the screen. Calls come from the whole dose curve; as a rule, active = well fitted inhibition curve with a large enough effect; inconclusive = small, poorly fitted or top-dose-only effect; inactive = no such curve, though single readings can be large or run the other way. Potencies of inconclusive entries are doubtful fits and often do not repeat.

Assay: qHTS Primary assay for Inhibitors of Plasmodium falciparum Dd2 growth in vitro; note: nearly all actives have a fitted effect of over 65% in size
Conditions: P. falciparum Dd2 growth, SYBR Green, 72 h; series mostly up to 28.9 µM
In short: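 Readout: SYBR Green fluorescence, 485 nm excitation, 535 nm emission, after ~16 h lysis at 37C. Before that, Dd2-infected red cells (2.5% hematocrit) grew 72 h with compound, 29 uM top final concentration.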
Potency is the fitted concentration of half-maximal effect; tags give direction and shape of the fitted curve.

Row | Structure (SMILES) | Potency
1 | CCCC(=O)C1=C(c2cccc(OC)c2)N(C(=O)CCC)n2c(C)nnc2S1 | inconclusive: 12.6 µM [inhibitor, single point]
2 | CN1c2cc(C(=O)Nc3ccc(Oc4ccccc4)cc3)ccc2C(=O)N2CCCCC21 (stereo unspecified) | inconclusive: 3.55 µM [inhibitor, single point]
3 | O=C(NC1CCCN(C2CCCCCC2)C1)c1ccccc1C(F)(F)F (stereo unspecified) | inconclusive: 11.2 µM [inhibitor, partial curve]
4 | Cc1cc(C)c2sc(N(Cc3cccnc3)C(=O)CCOc3ccccc3)nc2c1 | inconclusive: 11.2 µM [inhibitor, partial curve]
5 | COc1ccc(CCNC(=O)c2c(C)noc2-c2ccc3c(c2)OCO3)cc1OC | inactive
6 | CC(=O)N[C@H]1C[C@@H](c2cnc3ccccc3c2)O[C@@H](C2CCCCC2)C1 | inconclusive: 4.47 µM [inhibitor, partial curve, poor fit]
7 | COc1ccc(C2Cn3nnc(C(=O)N4CCC(C(=O)NC5CC5)CC4)c3CO2)cc1 (stereo unspecified) | inactive
8 | COc1ccccc1CN1C[C@@H](CO)[C@H](c2ccncc2)C1 | inconclusive: 3.16 µM [inhibitor, partial curve, poor fit]
9 | Cc1ccc(CN2CCc3oc(C)c(C(=O)NCCN4CCN(C)CC4)c3C2)cc1 | inconclusive: 8.91 µM [inhibitor, partial curve, poor fit]
10 | Cc1ccc(C)c(S(=O)(=O)NCCc2csc(-c3ccc(Cl)cc3)n2)c1 | inconclusive: 11.2 µM [inhibitor, single point]
11 | Cc1cccc(NC(=O)C2CCCN(S(=O)(=O)c3ccc4c(c3)oc(=O)n4C)C2)c1 (stereo unspecified) | inconclusive: 12.6 µM [inhibitor, single point]
12 | CC(=O)Nc1cccc(-c2cc3c(ccn3C)c(C(=O)NCCc3cnc[nH]3)n2)c1 | active: 5.01 µM
13 | Cc1sc2c(c1C)c(=O)n(CCc1ccccc1)c(=O)n2Cc1ccc(F)cc1 | inconclusive: 11.2 µM [inhibitor, partial curve]
14 | COCC(=O)N1CC2(Cc3ccccc3N(C(C)=O)C2)C1 | inactive
15 | CC(=O)c1ccc(N2CCN(C(=O)c3cc4ccc5cccnc5c4[nH]3)CC2)cc1 | inconclusive: 5.01 µM [inhibitor, partial curve]
16 | CC(C)c1ccc(N2C(=S)N[C@H]3[C@@H](O)[C@H](O)C[C@@H](C(=O)N(C)Cc4ccccc4)[C@H]32)cc1 | active: 12.6 µM
17 | COC(=O)[C@@H](Cc1c[nH]c2ccccc12)NC(=O)[C@@H]1CN(C(=O)Nc2ccccc2)CCN1C(=O)NC(C)C | inactive
18 | Cc1ccc(S(=O)(=O)NC[C@H]2OC[C@@H](NCC(C)(C)C)[C@@H]2O)cc1 | inactive
19 | O=C(c1cnc(N2CCCCC2)c2ccccc12)N1CCN(c2ccc(Cl)cc2)CC1 | inconclusive: 11.2 µM [inhibitor, single point]
20 | O=C(NCCc1ccncc1)c1ccc(OC2CCN(C(=O)C3CC3)CC2)cc1 | inactive
21 | CCSc1ncc(Cl)c(C(=O)N(Cc2ccccc2)Cc2ccco2)n1 | inconclusive: 11.2 µM [inhibitor, single point]

Row | Structure (SMILES) | Potency
22 | Cc1ccccc1CCC1CCCN(S(=O)(=O)c2cccnc2)C1 (stereo unspecified) | inconclusive: 17.8 µM [inhibitor, single point]
23 | Cc1ccc(C2C=C(c3ccc(F)cc3)Nc3nc(CCCO)nn32)cc1 (stereo unspecified) | active: 8.91 µM
24 | CCOc1ccc(C(=O)c2cn(Cc3ccccc3)c3c(F)cc(F)cc3c2=O)cc1 | inconclusive: 11.2 µM [inhibitor, single point]
25 | Cc1ccc(C2Cn3nnc(-c4noc(-c5cccc(N(C)C)c5)n4)c3CO2)cc1 (stereo unspecified) | inactive
26 | CCCNC(=O)N1CCCC(n2c(C)cnc2C2CC2)C1 (stereo unspecified) | inconclusive: 11.2 µM [inhibitor, partial curve, poor fit]
27 | CCN1CCN(C(=O)c2ccc(-c3nnc4ccc(NC(=O)C5CC5)cn34)cc2)CC1 | active: 0.447 µM
28 | Cc1c(C(=O)Nc2ccc(F)c(F)c2)oc2ccc(S(=O)(=O)N3CCC4(CC3)OCCO4)cc12 | inconclusive: 8.91 µM [inhibitor, single point]
29 | O=C(Nc1c(-c2ccc(F)cc2)nc2ccccn12)c1cccc(F)c1 | inconclusive: 17.8 µM [inhibitor, single point]
30 | O=C(NCCc1ccc(Cl)cc1)c1ccc2c(c1)N(Cc1c(F)cccc1Cl)C(=O)CS2 | inactive
31 | FC(F)(F)c1cccc(C2=NOC3(CCCN(CC4CCCC4)C3)C2)c1 (stereo unspecified) | inconclusive: 12.6 µM [inhibitor, partial curve, poor fit]
32 | COc1ccc(-c2ccnc3nc(CCc4ccccc4)nn23)cc1OC | inconclusive: 3.98 µM [inhibitor, partial curve]
33 | Cc1ccc(NC(=O)C2CCCN(S(=O)(=O)c3c(C)n[nH]c3C)C2)cc1Cl (stereo unspecified) | inconclusive: 3.16 µM [inhibitor, partial curve]
34 | CNC(=O)c1cc(-c2ccc([S+](C)(=O)[O-])cc2)cc2c1OCCN2Cc1cccnc1 | inconclusive: 1.78 µM [inhibitor, full curve, poor fit]
35 | O=C(NCc1cccc(F)c1)c1ccc2nc(N3CCCCC3)sc2c1 | inconclusive: 8.91 µM [inhibitor, partial curve]
36 | Cc1noc(C)c1S(=O)(=O)N1CCCCC1c1nc(CCOCC2CCCC2)no1 (stereo unspecified) | inconclusive: 17.8 µM [inhibitor, single point]
37 | Cc1cccc(OCC(=O)NC2CCN(c3cc(C(F)(F)F)ncn3)CC2)c1 | inactive
38 | Cc1ccc(OCC(=O)Nc2ccc3nc(SCC(N)=O)sc3c2)cc1 | inconclusive: 3.55 µM [inhibitor, partial curve]
39 | CCOc1ccc2c(n1)CCN(C(=O)c1ccc(OC)nc1)C2 | inconclusive: 6.31 µM [inhibitor, partial curve, poor fit]
40 | CCCc1cc(C(=O)N2CCCC(Cc3ccccc3F)(C(=O)OCC)C2)n(C)n1 (stereo unspecified) | inconclusive: 11.2 µM [inhibitor, single point]
41 | N#Cc1cccc(-c2ccnc(N[C@H]3CO[C@H]4[C@@H]3OC[C@@H]4NC(=O)c3ccc4c(c3)OCO4)n2)c1 | inconclusive: 20 µM [inhibitor, single point]
